# Measured values: a collection of fitness landscapes (doi:10.1016/j.celrep.2020.107928)
# Over roughly 81,000 sequences, “one-hybrid fitness for binding NBS DNA” has its median near -0.1; the highest 2% begin near 0.36. The list shows a part of the results.
# B1: Caulobacter ParB omega fusion; a variant is named by its letters at X, in order, B8GW30 (parent)
# chain: MESVVVGEPGMSEGRRGLGRGLSALLGEVDAAPAQAPGEQLGGSREAPIEILQRNPDQPRRTFREEDLEDLSNSIREKGVLQPILVRPSPDTAGEYQIVAGERAWRAAQRAGLKTVPIMVRELDDLAVLEIGIIENVQRADLNVLEEALSYKVLMEKFERTQENIAQTIGKSXSHVANXMRLLXLPDEVQSYLVSGELTAXHARAIAAAADPVALAKQIIEGGLSVRETEALARKAPNLSAGKSKGGRPPRVKDTDTQALESDLSSVLGLDVSIDHRGSTGTLTITYATLEQLDDLCNRLTRGI
# Variants of: B1
# Experiment: one-hybrid fitness for binding NBS DNA (the Noc-binding site; scaled: cognate 1, non-cognate 0); higher = stronger binding
# Conditions: with NBS DNA site
# In short: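 Caulobacter ParB libraries with four specificity codons randomised were screened by bacterial one-hybrid selection in the E. coli USO strain, using a HIS3 reporter whose site lies 19 bp from the promoter. Selection ran for 48 hours at 37°C on M9 lacking histidine, with 0.1 mM IPTG and 5 mM 3-AT. Plasmids were Illumina-sequenced before and after selection, three replicate libraries were pooled, and variants with under 10 reads were dropped. Fitness is the log change in each variant's read ratio to wild type, rescaled against the cognate and non-cognate sites.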
row,Variant,one-hybrid fitness for binding NBS DNA
1,ASQS,≤ 0.2
2,PQLS,≤ 0.2
3,TKLR,≤ 0.2
4,IRKF,≤ 0.2
5,HVWG,≤ 0.2
6,LSPC,≤ 0.2
7,WSEC,≤ 0.2
8,ACRW,≤ 0.2
9,DLCG,≤ 0.2
10,TRSP,≤ 0.2
11,HGRE,≤ 0.2
12,RHDT,0.258
13,NWYN,≤ 0.2
14,RSQH,≤ 0.2
15,PWTQ,≤ 0.2
16,YRNG,≤ 0.2
17,AIIS,≤ 0.2
18,RVYV,≤ 0.2
19,LTIL,≤ 0.2
20,NAIC,≤ 0.2
21,VPSV,≤ 0.2
22,STAR,≤ 0.2
23,TVTR,≤ 0.2
24,SDPG,≤ 0.2
25,YTDC,≤ 0.2
26,CHQW,≤ 0.2

row,Variant,one-hybrid fitness for binding NBS DNA
1,KPAM,≤ 0.2
2,YDYN,≤ 0.2
3,HTPQ,≤ 0.2
4,NFSC,≤ 0.2
5,ADHT,≤ 0.2
6,EQDL,≤ 0.2
7,VNES,≤ 0.2
8,VSEL,≤ 0.2
9,NQKS,≤ 0.2
10,RICT,0.323
11,SLLN,≤ 0.2
12,SQLP,≤ 0.2
13,LGFR,≤ 0.2
14,CQLW,≤ 0.2
15,TYGR,≤ 0.2
16,FRQA,≤ 0.2
17,QRVY,0.344
18,KYQT,≤ 0.2
19,SNDV,≤ 0.2
20,RAGH,≤ 0.2
21,TDHR,≤ 0.2
22,KCRC,≤ 0.2
23,FSHG,≤ 0.2
24,AWPA,≤ 0.2
25,CGRH,≤ 0.2
26,ETGK,≤ 0.2

row,Variant,one-hybrid fitness for binding NBS DNA
1,NGSW,≤ 0.2
2,QTEA,0.225
3,RNDW,≤ 0.2
4,PIFG,≤ 0.2
5,LIPT,≤ 0.2
6,PTMC,≤ 0.2
7,ITNF,≤ 0.2
8,QDWS,≤ 0.2
9,GNDG,≤ 0.2
10,IMDL,≤ 0.2
11,QDVC,≤ 0.2
12,NDDG,≤ 0.2
13,EMMT,≤ 0.2
14,RYCA,≤ 0.2
15,MKMG,≤ 0.2
16,QCQR,0.612
17,GKFE,≤ 0.2
18,YWKM,≤ 0.2
19,ERKF,≤ 0.2
20,GTFR,≤ 0.2
21,VSMC,≤ 0.2
22,GLLF,≤ 0.2
23,RPGD,≤ 0.2
24,RWSM,≤ 0.2
25,ASWT,≤ 0.2
26,KTPV,≤ 0.2

row,Variant,one-hybrid fitness for binding NBS DNA
1,ISHA,≤ 0.2
2,TGCW,≤ 0.2
3,HQRG,≤ 0.2
4,DQAF,≤ 0.2
5,RFDS,≤ 0.2
6,FDKS,≤ 0.2
7,AMPA,≤ 0.2
8,CKYK,≤ 0.2
9,MTVS,≤ 0.2
10,DIVI,≤ 0.2
11,QVPC,≤ 0.2
12,GHSG,≤ 0.2
13,SKRG,≤ 0.2
14,PSNG,≤ 0.2
15,SIPR,≤ 0.2
16,MRAH,≤ 0.2
17,AMGV,≤ 0.2
18,IEHC,≤ 0.2
19,PAHQ,≤ 0.2
20,RYEE,≤ 0.2
21,QITD,≤ 0.2
22,LHRC,≤ 0.2
23,QPPP,≤ 0.2
24,AETC,≤ 0.2
25,NMSL,≤ 0.2
26,NFDC,≤ 0.2

row,Variant,one-hybrid fitness for binding NBS DNA
1,PNVF,≤ 0.2
2,KTCT,≤ 0.2
3,DKFS,≤ 0.2
4,YSHT,≤ 0.2
5,DSTT,≤ 0.2
6,STKW,≤ 0.2
7,RYHE,≤ 0.2
8,ALNQ,≤ 0.2
9,VVHR,≤ 0.2
10,FSNS,≤ 0.2
11,RFFA,≤ 0.2
12,TLPT,≤ 0.2
13,RKYE,≤ 0.2
14,HAGR,≤ 0.2
15,SPNS,≤ 0.2
16,TERR,≤ 0.2
17,QRLE,0.209
18,FASQ,≤ 0.2
19,TIKM,≤ 0.2
20,DQER,≤ 0.2
21,LSMY,≤ 0.2
22,QKNP,≤ 0.2
23,DMCS,≤ 0.2
24,ISPG,≤ 0.2
25,YPKS,≤ 0.2
26,RTWR,0.404

row,Variant,one-hybrid fitness for binding NBS DNA
1,RHAI,≤ 0.2
2,SAKM,≤ 0.2
3,CNYS,≤ 0.2
4,GSVT,≤ 0.2
5,IPNV,≤ 0.2
6,HQLV,≤ 0.2
7,VHLM,≤ 0.2
8,LRPH,≤ 0.2
9,DGDG,≤ 0.2
10,NSLV,≤ 0.2
11,TVDI,≤ 0.2
12,QIMK,≤ 0.2
13,VATW,≤ 0.2
14,SMTE,≤ 0.2
15,YNRL,≤ 0.2
16,DEHR,≤ 0.2
17,KSRT,≤ 0.2
18,RYMV,≤ 0.2
19,PCDW,≤ 0.2
20,QMCI,≤ 0.2
21,QQKQ,0.493
22,THGY,≤ 0.2
23,TATP,≤ 0.2
